Measured values: PubChem BioAssay AID624296 (National Center for Advancing Translational Sciences (NCATS), 2012)
The campaign covered roughly 350,000 compounds. About 9,900 (2.8%) were called active. Inconclusive results, whose numbers are uncertain, are shown with a selection of clear calls. Calls follow the shape of the dose curve; as a rule, active = well fitted activation curve with a large enough effect; inconclusive = small, poorly fitted or top-dose-only effect; inactive = no such curve, though single readings can be large or run the other way. No potency is given beside an inconclusive call; the fits are too rough.

assay: A quantitative high throughput screen for small molecules that induce DNA re-replication in MCF 10a normal breast cells.; also: nearly all actives have a fitted effect of over 50% in size; settings: MCF 10A DNA re-replication, Hoechst nuclear intensity, 48 h; series mostly up to 46.1 µM
Potency is read from the fitted curve at half-maximal effect; tags tell the direction and shape of the fitted curve.

Structure (SMILES) | Potency
O=C(O)c1ccc(NC(=O)c2ccccc2NC(=O)c2cccc(Br)c2)cc1 | inactive
Cc1ccc(C(C(=O)Nc2ccc3c(c2)OCO3)N(C)C(=O)/C=C\c2ccc3c(c2)OCO3)cc1 (stereo not drawn) | inconclusive [activator, partial curve, poor fit]
CCCN(CCC(=O)Nc1cc(OC)cc(OC)c1)CC1CC1 | inconclusive [activator, single point]
O=C(NCc1ccncc1)c1ccc(N2CCCC2)c([N+](=O)[O-])c1 | inactive
COc1cc2c(cc1OC)N1C(=O)CC(OCC(=O)O)C3C4CC5(CCN5C(=O)C4=O)C2C31 (stereo not drawn) | inconclusive [activator, partial curve, poor fit]
Cn1c(-n2c(-c3ccco3)nc3ccccc3c2=O)nc2ccccc21 | inconclusive [activator, single point]
O=C1c2ccccc2C(=O)c2c(/C=C/N3CCCCC3)ccnc21 | inconclusive [activator, partial curve]
CC(=O)Nc1nonc1-c1nc2ccccc2n1CCC(C)C | inconclusive [activator, single point]
O=C(OCC(=O)N1CCN(C(=O)c2ccco2)CC1)c1cc(-c2ccco2)nc2ccccc12 | inactive
O=C(CN1C(=O)NC2(CCCCC2)C1=O)NCC(=O)Nc1ccc(F)c(F)c1 | inactive
CC(C)CCN1CCN(C2CSCCSC2)CC1CCO (stereo not drawn) | inconclusive [activator, single point]
COc1ccccc1-c1cc(C(=O)N/N=C\c2cnn(C)c2C)c2ccccc2n1 | inconclusive [activator, single point]
Cc1noc(-c2ccc(C(F)(F)F)cc2)c1NC(=O)Nc1ccc(Cl)cc1 | inconclusive [activator, single point]
CCCC(=O)Nc1nc2ccc(NC(=O)c3cccnc3)cc2s1 | inconclusive [activator, single point]
CCCCCCCCNC(=O)c1cccnc1SCC(=O)Nc1ccccc1OC | inconclusive [activator, partial curve, poor fit]
COc1ccc(CNC(=O)Cn2cnc3c(NCc4ccccc4)ncnc32)cc1 | inconclusive [activator, single point]
COC(=O)C(C(=O)OC)C(CC(=O)c1ccc(C)cc1)c1cc(OC)c(OC)c(OC)c1 (stereo not drawn) | inconclusive [activator, full curve]
O=C(Nc1ccon1)c1cc2c(s1)CCCCCC2 | inconclusive [activator, partial curve, poor fit]
